Results taken from PubChem BioAssay AID1345082 (National Center for Advancing Translational Sciences (NCATS), 2018).
“And” between values parts separate entries of the source, which are not always exact repeats. Identical values can stand only once. The campaign covered roughly 94,000 compounds. About 4,000 (4.3%) were called active. This list was built around the results that the source calls inconclusive (neither active nor inactive); the mix of calls is not that of the screen. Calls follow the shape of the dose curve; as a rule, active = well fitted inhibition curve with a large enough effect; inconclusive = small, poorly fitted or top-dose-only effect; inactive = no such curve, though single readings can be large or run the other way. Potencies of inconclusive entries are doubtful fits and often do not repeat.

experiment: Cytotoxic Profiling in NIH 3T3 Cell Line of Diverse Libraries Using Quantitative High-Throughput Screening; conditions: NIH 3T3 viability, CellTiter-Glo ATP luminescence, 48-72 h; series mostly up to 96.7 µM; also: nearly all actives have a fitted effect of over 55% in size
How it was run: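 Viability of NIH 3T3 cells after 48 or 72 hr compound treatment at 37 °C was assessed by CellTiter-Glo, with luminescence imaged following a 10 min room-temperature step.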
Potency is read from the fitted curve at half-maximal effect; tags tell the direction and shape of the fitted curve.

Compound	Potency
Cc1nn2c(c1-c1ccccc1[S+](C)(=O)[O-])N(CCC(C)C)CCC2	inconclusive: 20 µM [inhibitor, full curve, poor fit]
CCCCN1C(=O)c2ccccc2C(C(=O)Nc2nc(C)cs2)C12CCCC2 (stereo not drawn)	inactive
COc1ccc(Nc2ccnc(N3CCC(NC(=O)Cc4ccc(C(F)(F)F)cc4)CC3)n2)cc1	inconclusive: 56.2 µM [inhibitor, partial curve, poor fit]
CCS(=O)(=O)CC(=O)N1CCn2nc(C(=O)Nc3ccccc3)cc2C1	inactive
CNC(=O)[C@H]1C[C@H](Oc2ccccc2)CN1C(=O)Nc1cccc(C)c1	inactive
Cc1ccc2nc3n(c2c1)[C@@H](CNC(=O)c1ccc(C#N)cc1)COC3	active: 89.1 µM
F[C@@H]1CN(Cc2ccc(C(F)(F)F)cc2)C[C@@H]1OCc1nc2ccncc2[nH]1	inconclusive: 39.8 µM [inhibitor, partial curve, poor fit]
CCCn1ncc(C(=O)N2CCOC(CCCC(C)C)C2)c1C (stereo not drawn)	inconclusive: 39.8 µM [inhibitor, full curve]
O=C1c2cnc(-c3ccccc3OCc3ccccc3)nc2OCCN1CC1CC1	inactive
COc1cc(C(=O)N2c3ccccc3CC2c2nc(C(C)C)no2)cc(OC)c1OC (stereo not drawn)	inactive
O=C(NCC1Cn2cccc2CN1Cc1ccccc1)c1cncc(Br)c1 (stereo not drawn)	inconclusive: 70.8 µM [inhibitor, single point]
COc1ccc(C(=O)NC2CCCN(c3cc(-c4ccc(Cl)cc4)[nH]n3)C2)cc1 (stereo not drawn)	active: 35.5 µM
c1ccc(CCN2CCNc3cc(Nc4ccc(N5CCOCC5)cc4)ncc3C2)cc1	active: 35.5 µM
COc1ccc(-c2noc([C@@H]3CCCN3C(=O)c3ccc(C)c(C)c3)n2)cc1OC	inconclusive: 50.1 µM [inhibitor, partial curve, poor fit]
COc1ccc(CN(C)C(=O)c2ccc3oc(C)cc3c2)c2cccnc12	inconclusive: 56.2 µM [inhibitor, partial curve, poor fit]
O=C(C1CN(C2CCCCC2)C(=O)N1)N1CCc2ccccc2C1 (stereo not drawn)	inconclusive: 89.1 µM [inhibitor, partial curve, poor fit]
COc1ccc(-c2ccc3c(c2)C(=O)N2CCN(C(=O)COc4ccccc4)C[C@@H]2C(=O)N3)cc1	inconclusive: 79.4 µM [inhibitor, partial curve, poor fit]
O=C(C1CCCCN1Cc1ccc(-c2ccsc2)cc1)N1CCC(Cc2ccccc2)CC1 (stereo not drawn)	active: 35.5 µM
O=C(c1ccc(F)cc1)N1CCC(C(=O)N2CCCC(c3nc4ccncc4[nH]3)C2)CC1 (stereo not drawn)	inactive
CC(C)Cn1c(=O)c(C(=O)N2CCN(c3ncccn3)CC2)nc2cccnc21	inconclusive: 79.4 µM [inhibitor, single point]
CCCn1ccnc1CN1CCCn2nc(-c3nc4ccccc4n3C)cc2C1	inconclusive: 44.7 µM [inhibitor, partial curve]

Compound	Potency
O=C1[C@H]2CN(Cc3ccc(Cl)c(F)c3)C[C@H]2C(=O)N1CCc1ccccc1	inconclusive: 50.1 µM [inhibitor, partial curve, poor fit]
Cc1cc(C)c(CNC(=O)c2nc(-c3cccc(O)c3)cc3c2ccn3C(C)C)c(=O)[nH]1	inconclusive: 17.8 µM [inhibitor, full curve, poor fit]
CC1CCC2(CC1)OCC(C(=O)NC(C)(C)C)N2C(=O)c1ccc(F)cc1 (stereo not drawn)	inconclusive: 50.1 µM [inhibitor, partial curve, poor fit]
C=CCOc1c(OC)ccc2c1CN(C1CCCC1)C(=O)CCN2CC(O)COCc1ccco1 (stereo not drawn)	inconclusive: 70.8 µM [inhibitor, partial curve, poor fit]
C=CCNC(=O)N[C@H]1CCN2C(=O)c3ccc(Cl)cc3NC(=O)[C@@H]2C1	active: 31.6 µM
COc1ccc(C(=O)Nc2ccc(-c3noc([C@@H]4CCCN4Cc4ccc(F)cc4)n3)cn2)cc1	inconclusive: 11.2 µM [inhibitor, full curve, poor fit]
Cc1ccc(C(=O)N2CCC[C@H]2c2nc(-c3ccccc3Cl)no2)cc1	inconclusive: 50.1 µM [inhibitor, partial curve, poor fit]
c1cc2nc(-c3ccsc3)[nH]c2cn1	inconclusive: 89.1 µM [inhibitor, partial curve, poor fit] and inconclusive: 112 µM [inhibitor, partial curve, poor fit]
O=C(O)c1ccc2c(c1)n(Cc1cccc(F)c1)c(=O)c1ccnn12	inconclusive: 44.7 µM [inhibitor, partial curve, poor fit]
COc1cccc(NC(=O)Cn2c(N3CCc4ccccc4C3)nc(C)cc2=O)c1	active: 22.4 µM
CCC1CCCCN1C(=O)c1ccc(-c2nnc3ccc(NC(=O)C4CCC4)cn23)cc1 (stereo not drawn)	inconclusive: 50.1 µM [inhibitor, partial curve, poor fit]
O=C(NC1CCC(n2cc(C(=O)N3CCCC3)nn2)CC1)C(c1ccccc1)C1CCCC1 (stereo not drawn)	inactive
COCC(=O)Nc1ccc(-c2c(-c3cccc(OC)c3)nn(-c3ccccc3)c2OC(C)=O)cc1	inconclusive: 44.7 µM [inhibitor, partial curve, poor fit]
Cn1cc(-c2cccc(CO)c2)c2nc(CNc3ccccc3)cn2c1=O	inconclusive: 79.4 µM [inhibitor, partial curve]
FC(F)(F)c1ccnc(N2CCC(OCc3cccnc3)CC2)n1	inconclusive: 35.5 µM [inhibitor, full curve]
O=C(c1ccccc1F)N1CCn2c(nnc2C2CCNCC2)C1	active: 28.2 µM
O=C(CNC(=O)c1cnccn1)NC1CCCc2c1[nH]c1ccc(Cl)cc21 (stereo not drawn)	inactive
O=C(NC1CC1)C1CCCN(Cc2cccc(-c3cccs3)c2)C1 (stereo not drawn)	inconclusive: 50.1 µM [inhibitor, partial curve, poor fit]
Cc1nn(C(=O)CCCC(=O)N2CCC(Cc3nncn3CC3CC3)CC2)c2ccccc12	inconclusive: 50.1 µM [inhibitor, partial curve, poor fit]
Cn1ncc2c(C(=O)NC3CCC3)cc(-c3ccc(C(F)(F)F)cc3)nc21	active: 35.5 µM
CCC(C(=O)N1CCCN(c2cc(-c3ccc(OC)cc3)[nH]n2)CC1)c1ccccc1 (stereo not drawn)	inconclusive: 39.8 µM [inhibitor, partial curve, poor fit]

Compound	Potency
Cc1cccc(-c2ocnc2C(=O)N2CCCOCCNC(=O)CC2)c1	inconclusive: 63.1 µM [inhibitor, single point]
CCN1CCCN(S(C)(=O)=O)CC12CCOCC2	inactive
Cc1nn2c(c1-c1ccccc1Oc1ccccc1)N(C(=O)C1CCC1)CCC2	inconclusive: 89.1 µM [inhibitor, partial curve]
Cc1ccsc1C(=O)Nc1ccc(-c2nnc3n2CCCC3)cc1	inconclusive: 44.7 µM [inhibitor, partial curve, poor fit]
COc1ccc(-c2noc([C@@H]3Cc4nc[nH]c4CN3C(=O)c3ccc(F)cc3)n2)cc1	inconclusive: 56.2 µM [inhibitor, partial curve, poor fit]
COc1ccc(Nc2ccnc(N3CCCC(C(=O)NCc4ccc(F)cc4)C3)n2)cc1 (stereo not drawn)	active: 28.2 µM
O=C(CN1C(=O)NC(c2ccccc2Cl)C2=C1COC2=O)Nc1ccc(F)c(F)c1 (stereo not drawn)	inconclusive: 50.1 µM [inhibitor, partial curve, poor fit]
CSc1ccc(-c2cccc(C=O)c2)cc1	inconclusive: 79.4 µM [inhibitor, partial curve, poor fit]
CN(C)CCNC(=O)c1nc2nc(-c3ccccc3)c(-c3cccc(Cl)c3)cc2n1C	active: 10 µM
O=C1CN(C(=O)C2CCN(c3nc(-c4ccccc4)nc4c3CCC4)CC2)CCN1	inconclusive: 89.1 µM [inhibitor, single point]
CNC(=O)[C@H]1CN(C(=O)CCc2ccccc2)[C@]2(C)C(=O)N(CCO)c3ccccc3[C@H]12	inconclusive: 35.5 µM [inhibitor, partial curve, poor fit]
O=C(NC1CC1)c1ccc2nc(-c3cccnc3Cl)oc2c1	inactive
CC(C)NC(=O)c1ccc2nnc(-c3cccc(OC(F)(F)F)c3)n2c1	inconclusive: 50.1 µM [inhibitor, partial curve, poor fit]
O=C(NCc1ccccc1)C1CCCN1C(=O)c1cccc(-c2ccccn2)c1 (stereo not drawn)	inactive
COCc1cc(CNC(=O)c2ccc(C3CCNC3)cc2)[nH]n1 (stereo not drawn)	inconclusive: 89.1 µM [inhibitor, single point]
COCc1ccc2c(c1)c(OC(C)(C)C(=O)N1CCOCC1)nn2Cc1cccc(OC)c1	active: 3.98 µM
CN(C)S(=O)(=O)N1CCC(F)(c2nc(-c3ccccc3)no2)CC1	inactive
COc1ccccc1CC(=O)N1CCC2(CC1)NC(=O)N(Cc1ccc(F)cc1)C2=O	inconclusive: 28.2 µM [inhibitor, partial curve, poor fit]
COc1ccc(Cl)cc1C(=O)N1CCC(n2cc(-c3nc(C)no3)nn2)CC1	inconclusive: 39.8 µM [inhibitor, partial curve, poor fit]
OCc1cccc(-c2ccc3ncc(Nc4cccc(F)c4)n3n2)c1	active: 28.2 µM
CC(C)NC(=O)N1CCCC(c2nc(C(C)C)no2)CCNC(=O)CC1 (stereo not drawn)	inactive
